# Reference: PubChem BioAssay AID540317 (National Center for Advancing Translational Sciences (NCATS), 2011)
# The whole screen tested about 390,000 compounds, of which about 2,200 (0.56%) were called active. Inconclusive results, whose numbers are uncertain, are shown with a selection of clear calls. The call rests on the fitted dose curve; in most records, active means well fitted inhibition curve with a large enough effect; inconclusive means small, poorly fitted or top-dose-only effect; inactive means no such curve, though single readings can be large or run the other way. Where the call is inconclusive, the potency comes from a doubtful curve fit. The source holds several records for some structures; these can differ, active in one and inactive in another.
# Molecular target: Chromobox protein homolog 1 (Homo sapiens) (UniProt P83916)
# Sequence of UniProt P83916 (P83916 whole entry, looked up): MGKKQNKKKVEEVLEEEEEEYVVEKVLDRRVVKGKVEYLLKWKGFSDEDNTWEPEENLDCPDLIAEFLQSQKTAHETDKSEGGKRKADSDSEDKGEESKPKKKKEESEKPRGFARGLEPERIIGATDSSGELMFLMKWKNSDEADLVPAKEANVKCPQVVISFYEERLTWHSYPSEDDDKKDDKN
# Assay: HTS for Inhibitors of HP1-beta Chromodomain Interactions with Methylated Histone Tails; further: nearly all actives have a fitted effect of over 70% in size
# Settings: AlphaScreen HP1-beta / biotin-H3K9me3 peptide binding; series mostly up to 114 µM; activity change, negative = inhibition: at the top concentration
# How it was run: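 AlphaScreen: HP1-beta (50 nM) preformed 30 min with biotin-H3(1-18)K9me3 peptide (50 nM) in PBS pH 7.4, 0.01% Tween-20. Compound added for 30 min at RT, then streptavidin donor/nickel chelate acceptor beads (10 ug/mL) for 30 min.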
# Potency means the concentration at half of the fitted maximal effect; tags describe the fitted curve by direction and shape.
SMILES,Potency,"activity change, negative = inhibition"
c1ccc(C(=NNc2nc3ccccc3s2)c2ccccn2)cc1,"inconclusive: 50.1 µM [inhibitor, partial curve]",
COc1cccc(C(=O)N2CCC(N3CC(C)OC(C)C3)CC2)c1 (stereo not drawn),"inconclusive: 8.91 µM [inhibitor, full curve, poor fit]",
Oc1ccc(/C=N/Nc2cc(N3CCOCC3)nc(N3CCOCC3)n2)cc1O,"inconclusive: 39.8 µM [inhibitor, partial curve, poor fit]",
COc1ccc(N2CCN(c3oc(-c4ccccc4OC)nc3C#N)CC2)cc1,"inconclusive: 14.1 µM [inhibitor, partial curve, poor fit]",
O=C(c1ccncc1)N(Cc1ccccc1)Cc1nc2ccccc2c(=O)[nH]1,,inactive: 39.4%
Cc1ccc(C(=O)N/C(=C\c2cn(S(=O)(=O)N(C)C)c3ccccc23)C(=O)NCCCn2ccnc2)cc1,active: 50.1 µM,
COc1nccnc1NS(=O)(=O)c1ccc(NC(=S)NC(=O)c2ccccc2F)cc1,"inconclusive: 56.2 µM [inhibitor, partial curve]",
Cc1ccc(-c2nnc(SCC(=O)N/N=C/c3c(C)nn(-c4ccccc4)c3C)n2-c2ccc(C)cc2)cc1,"inconclusive: 25.1 µM [inhibitor, single point]",
CC(/C=C/c1ccco1)=N/NC(=O)Cc1cccs1,,inactive: 5.7%
COc1ccc(N2CCN(c3nc4c(c(=O)[nH]c(=O)n4C)n3Cc3cccc(C)c3)CC2)cc1,"inconclusive: 39.8 µM [inhibitor, single point]",
O=C(Nc1ccc2c(c1)OCO2)C1CCN(Cc2cc3c(cc2O)OCO3)CC1,"inconclusive: 70.8 µM [inhibitor, single point]",
CCOC(=O)c1c(C)[nH]c(N=Nc2ccc(C)cc2C)c1C,active: 22.4 µM,
COc1ccccc1NS(=O)(=O)c1ccc(C(=O)N2CCCCCC2)cc1,,inactive: 16.5%
CC(=O)N1c2ccccc2C(=O)C1N1CCN(c2cc(Cl)ccc2C)CC1 (stereo not drawn),,inactive: 54.7%
N#Cc1nc(COc2cccc(Cl)c2)oc1NCc1ccco1,"inconclusive: 44.7 µM [inhibitor, partial curve]",
COc1ccc(C(=O)N2CCc3ccc(NC(=O)c4ccccn4)cc3C2)cc1F,,inactive: 25%
CCOC(=O)c1cc(-c2ccc(/C=C3/C(=O)N(c4ccc(C(=O)O)cc4)N=C3C)o2)ccc1Cl,"inconclusive: 25.1 µM [inhibitor, partial curve, poor fit]",
O=C(c1ccc(F)cc1)N1CCN(c2cc(N3CCCCC3)c(F)cc2[N+](=O)[O-])CC1,"inconclusive: 15.8 µM [inhibitor, full curve]",
Cc1cccc(N/N=C(\C(N)=O)C2=NC(C)(C)Cc3ccccc32)c1,"inconclusive: 15.8 µM [inhibitor, full curve]",
CCOC(=O)c1c(C)sc(Sc2ccc(Cl)cc2[N+](=O)[O-])c1OC,"inconclusive: 39.8 µM [inhibitor, partial curve, poor fit]",
Cc1ccc(NC(=O)C(NC2CCCc3ccccc32)c2ccccc2)c([N+](=O)[O-])c1 (stereo not drawn),active: 25.1 µM,
COc1cc(/C=N/N2CCN(Cc3ccc(C)cc3)CC2)cc(OC)c1O,"inconclusive: 35.5 µM [inhibitor, partial curve]",

SMILES,Potency,"activity change, negative = inhibition"
COc1ccc(N2CCN(Cc3nc(-c4ccccc4)no3)CC2)cc1,"inconclusive: 50.1 µM [inhibitor, partial curve]",
CC(C)Oc1ccc(OCCNC2CCCC2)cc1,"inconclusive: 70.8 µM [inhibitor, partial curve, poor fit]",
COc1ccc(C(=O)N/C(=C\c2cn(S(=O)(=O)N(C)C)c3ccccc23)C(=O)NCCCn2ccnc2)cc1,inactive,
C#CC(=O)CCC1CCCN1C(=O)OC(C)(C)C (stereo not drawn),,inactive: 36.3%
COc1ccc(C2NC(=S)N(c3ccccc3)C(C)=C2C(=O)Nc2ccccc2)cc1 (stereo not drawn),,inactive: -6.44%
O=C(O)/C=C/C(=O)N1CCN(C(=O)/C=C/C(=O)O)CC1,,inactive: -10.7%
CN1C(=O)/C(=C/c2ccc(C(=O)Nc3ccc(O)cc3C(=O)O)cc2)SC1=S,active: 44.7 µM,
COc1cc(/C=C2/C(=O)NN(c3ccc(F)cc3)C2=O)cc([N+](=O)[O-])c1O,"inconclusive: 31.6 µM [inhibitor, partial curve]",
CCOc1ccc(OCC)c(NC(=O)c2nnn(CC(=O)Nc3cc(C)cc(C)c3)c2N)c1,,inactive: 22.8%
CCOC(=O)C1=CN(CC)S(=O)(=O)NC1c1cccc(OC)c1 (stereo not drawn),,inactive: -2.83%
O=C(N/N=C/C1=C(N2CCOCC2)C(=C\c2ccccc2)/CC1)Nc1ccccc1,,inactive: 27.7%
COc1ccc(Cn2nnnc2C(c2cccnc2)N2CCN(c3ccc(O)cc3)CC2)cc1 (stereo not drawn),"inconclusive: 89.1 µM [inhibitor, single point]",
C=CCC[C@H](Cc1ccc(F)cc1)C(=O)OC[C@H](Cc1c[nH]c2ccccc12)NC(=O)[C@@H](CC=C)CC(=O)NCCO,,inactive: 1.47%
CCOC(=O)C(Cc1ccnc2ccccc12)=NO,,inactive: 6.86% [at 57 µM]
c1csc(-c2nnc(N3CCCCCC3)c3ccccc23)c1,"inconclusive: 25.1 µM [inhibitor, full curve]",
CCOc1ccc2c(c1)[C@@H]1C=CC[C@@H]1[C@H](c1ccccc1Cl)N2,"inconclusive: 17.8 µM [inhibitor, full curve]",
COc1ccc(OC)c(NCc2cccn2-c2nnc(N3CCC(C)CC3)s2)c1,"inconclusive: 20 µM [inhibitor, full curve]",
CCOc1ccc(S(=O)(=O)Nc2ccc(C(=O)N/N=C/c3c(C)nn(-c4ccccc4)c3N3CCCC3)cc2)cc1,"inconclusive: 35.5 µM [inhibitor, single point]",
O=C(/C=C/c1ccc([N+](=O)[O-])cc1)Nc1cccc(C(=O)Nc2ccccc2C(=O)O)c1,"inconclusive: 50.1 µM [inhibitor, partial curve]",
CCOC(=O)c1c(-c2ccc(F)cc2)csc1NC(=O)CCN1CCOCC1,"inconclusive: 50.1 µM [inhibitor, partial curve]",
Cc1cc(=O)oc2c(CN3CCCC3)c(O)ccc12,,inactive: 21.2%
